Test [1] has as its target T1, HA-tagged murine MFSD7C (mouse) (UniProt Q91X85).
T1 sequence: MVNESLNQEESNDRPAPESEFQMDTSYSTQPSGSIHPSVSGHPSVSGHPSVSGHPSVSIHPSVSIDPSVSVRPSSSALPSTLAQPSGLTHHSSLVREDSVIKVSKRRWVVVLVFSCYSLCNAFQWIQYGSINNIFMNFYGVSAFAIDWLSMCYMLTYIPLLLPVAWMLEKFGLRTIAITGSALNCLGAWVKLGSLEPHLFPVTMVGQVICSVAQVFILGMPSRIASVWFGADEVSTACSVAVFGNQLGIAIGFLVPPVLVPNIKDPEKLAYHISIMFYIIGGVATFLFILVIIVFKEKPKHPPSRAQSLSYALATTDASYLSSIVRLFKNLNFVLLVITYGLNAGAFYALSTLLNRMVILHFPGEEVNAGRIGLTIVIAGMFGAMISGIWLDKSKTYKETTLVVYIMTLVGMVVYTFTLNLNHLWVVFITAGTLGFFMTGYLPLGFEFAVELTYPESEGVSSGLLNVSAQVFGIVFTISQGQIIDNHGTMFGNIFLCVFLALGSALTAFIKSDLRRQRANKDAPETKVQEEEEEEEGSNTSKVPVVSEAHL
Description: co-IP; as a2, result for cells treated with 10 μM or 40 μM heme for 1 h before lysis.

Amino acid sequences for entries named in this document (tags omitted).
UniProt Q9DCX2: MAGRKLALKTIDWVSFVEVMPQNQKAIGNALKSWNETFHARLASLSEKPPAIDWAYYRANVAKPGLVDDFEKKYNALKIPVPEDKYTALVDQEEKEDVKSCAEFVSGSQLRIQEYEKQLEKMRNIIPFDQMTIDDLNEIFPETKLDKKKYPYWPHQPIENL
UniProt O55143: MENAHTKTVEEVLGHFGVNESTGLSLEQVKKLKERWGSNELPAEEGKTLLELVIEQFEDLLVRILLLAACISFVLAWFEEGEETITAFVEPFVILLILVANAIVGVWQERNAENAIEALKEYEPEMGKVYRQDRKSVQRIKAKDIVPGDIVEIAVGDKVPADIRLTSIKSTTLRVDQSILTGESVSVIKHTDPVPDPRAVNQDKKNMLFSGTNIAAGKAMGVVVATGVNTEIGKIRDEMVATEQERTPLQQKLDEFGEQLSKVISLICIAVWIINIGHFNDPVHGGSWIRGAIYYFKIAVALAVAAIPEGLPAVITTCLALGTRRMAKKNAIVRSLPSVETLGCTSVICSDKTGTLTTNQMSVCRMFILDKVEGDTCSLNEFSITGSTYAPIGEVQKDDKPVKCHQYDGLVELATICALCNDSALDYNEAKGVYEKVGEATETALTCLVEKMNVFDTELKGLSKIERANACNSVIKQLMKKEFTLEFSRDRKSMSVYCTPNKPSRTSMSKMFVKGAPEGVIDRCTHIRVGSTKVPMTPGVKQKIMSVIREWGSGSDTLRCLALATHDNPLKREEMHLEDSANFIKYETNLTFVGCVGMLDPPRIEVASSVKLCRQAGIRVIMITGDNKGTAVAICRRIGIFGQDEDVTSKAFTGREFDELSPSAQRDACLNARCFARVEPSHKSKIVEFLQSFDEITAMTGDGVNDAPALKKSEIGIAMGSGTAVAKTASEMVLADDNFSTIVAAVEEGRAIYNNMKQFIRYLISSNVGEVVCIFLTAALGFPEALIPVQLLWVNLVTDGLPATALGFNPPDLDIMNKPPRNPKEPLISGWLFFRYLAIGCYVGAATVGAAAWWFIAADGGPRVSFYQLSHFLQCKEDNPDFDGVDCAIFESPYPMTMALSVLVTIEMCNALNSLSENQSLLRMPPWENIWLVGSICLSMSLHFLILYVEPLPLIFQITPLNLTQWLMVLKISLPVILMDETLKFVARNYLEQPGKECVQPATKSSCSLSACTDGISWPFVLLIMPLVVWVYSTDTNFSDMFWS

Test [2] has as its target T2, HA-tagged MFSD7C^ΔN (mouse) (UniProt Q91X85).
T2 sequence: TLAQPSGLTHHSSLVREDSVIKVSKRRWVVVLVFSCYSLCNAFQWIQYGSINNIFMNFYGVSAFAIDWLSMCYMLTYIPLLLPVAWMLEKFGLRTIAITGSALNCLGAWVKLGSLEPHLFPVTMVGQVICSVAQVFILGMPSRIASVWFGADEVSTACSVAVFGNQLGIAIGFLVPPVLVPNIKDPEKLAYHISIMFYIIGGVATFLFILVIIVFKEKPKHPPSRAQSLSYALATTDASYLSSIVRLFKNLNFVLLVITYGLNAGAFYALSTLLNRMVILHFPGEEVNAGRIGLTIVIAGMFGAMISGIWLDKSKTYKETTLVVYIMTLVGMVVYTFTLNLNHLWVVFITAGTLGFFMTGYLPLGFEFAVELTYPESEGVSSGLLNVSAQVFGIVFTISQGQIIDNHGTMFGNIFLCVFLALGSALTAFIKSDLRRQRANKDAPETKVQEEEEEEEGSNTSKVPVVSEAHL
The experiment in a line: co-IP; HA-tagged MFSD7C (or MFSD7C^ΔN) and FLAG-tagged partner co-transfected in 293FT cells; lysis in 20 mM Tris-HCl pH 7.4, 150 mM NaCl, 0.1% NP-40, 10% glycerol; sequential anti-FLAG and anti-HA precipitation with peptide elution, immunoblot with anti-HA and anti-FLAG; cells untreated (vehicle) or treated with 10 or 40 μM heme for 1 h before lysis. (In general: Immunoblotting shows a protein as a band on a membrane.)

In test [3] the target is T1, HA-tagged murine MFSD7C (mouse). The description is as above.
Test [4] deals with ATP5h (endogenous) (mouse (endogenous in MH-S and in bone marrow-derived macrophages)) (UniProt Q9DCX2). Description: co-IP; endogenous proteins in lysates of bone marrow-derived macrophages from Mfsd7c^fl/fl mice (control: Mfsd7c^-/-); anti-ATP5h, anti-SERCA2b and anti-HMOX1 immunoprecipitates blotted for MFSD7C; cells without or with heme treatment (with heme the co-IP with SERCA2b diminished, with HMOX1 enhanced).

In test [5] the target is Atp2a2 (SERCA2b) (endogenous) (mouse (endogenous in MH-S and in bone marrow-derived macrophages)) (UniProt O55143). The test is described as above.
In test [6] the target is T3, HMOX1 (endogenous) (mouse (endogenous in MH-S and in bone marrow-derived macrophages)) (UniProt P14901).
T3 sequence: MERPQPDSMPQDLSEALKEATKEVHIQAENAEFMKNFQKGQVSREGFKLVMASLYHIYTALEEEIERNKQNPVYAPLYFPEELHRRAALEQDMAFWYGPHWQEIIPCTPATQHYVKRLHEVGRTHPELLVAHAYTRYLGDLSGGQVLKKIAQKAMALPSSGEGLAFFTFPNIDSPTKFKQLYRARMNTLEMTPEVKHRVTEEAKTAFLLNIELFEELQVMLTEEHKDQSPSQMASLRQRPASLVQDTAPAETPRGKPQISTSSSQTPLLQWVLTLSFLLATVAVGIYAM
The test is described as above.

Among the data in PMC7515921, “MFSD7C switches mitochondrial ATP synthesis to thermogenesis in response to heme” (Nature Communications, 2020) are binding values, retold here.

Results are given in words; binding and its absence hold for the method and conditions named. Binding seen in cells or lysates may run through a third protein. Some entries that bind do so weakly or less than the wild type. For some assays here: Tags and fused reporters may be left off the sequences shown.

As to “FLAG-tagged murine ATP5h (from UniProt Q9DCX2 1-161)”, the binding entry in test [1] is reported as “binds weakly”; in test [2], “binds”; in test [3] it was “binds”.

B1: FLAG-tagged murine HMOX1 (protein, UniProt P14901 1-289)
chain: MERPQPDSMPQDLSEALKEATKEVHIQAENAEFMKNFQKGQVSREGFKLVMASLYHIYTALEEEIERNKQNPVYAPLYFPEELHRRAALEQDMAFWYGPHWQEIIPCTPATQHYVKRLHEVGRTHPELLVAHAYTRYLGDLSGGQVLKKIAQKAMALPSSGEGLAFFTFPNIDSPTKFKQLYRARMNTLEMTPEVKHRVTEEAKTAFLLNIELFEELQVMLTEEHKDQSPSQMASLRQRPASLVQDTAPAETPRGKPQISTSSSQTPLLQWVLTLSFLLATVAVGIYAM
For the molecule B1, the binding entry in test [2] is given as “no binding”; in test [3], “binds”.

B2: endogenous MFSD7C (protein, UniProt Q91X85 1-551)
chain: MVNESLNQEESNDRPAPESEFQMDTSYSTQPSGSIHPSVSGHPSVSGHPSVSGHPSVSIHPSVSIDPSVSVRPSSSALPSTLAQPSGLTHHSSLVREDSVIKVSKRRWVVVLVFSCYSLCNAFQWIQYGSINNIFMNFYGVSAFAIDWLSMCYMLTYIPLLLPVAWMLEKFGLRTIAITGSALNCLGAWVKLGSLEPHLFPVTMVGQVICSVAQVFILGMPSRIASVWFGADEVSTACSVAVFGNQLGIAIGFLVPPVLVPNIKDPEKLAYHISIMFYIIGGVATFLFILVIIVFKEKPKHPPSRAQSLSYALATTDASYLSSIVRLFKNLNFVLLVITYGLNAGAFYALSTLLNRMVILHFPGEEVNAGRIGLTIVIAGMFGAMISGIWLDKSKTYKETTLVVYIMTLVGMVVYTFTLNLNHLWVVFITAGTLGFFMTGYLPLGFEFAVELTYPESEGVSSGLLNVSAQVFGIVFTISQGQIIDNHGTMFGNIFLCVFLALGSALTAFIKSDLRRQRANKDAPETKVQEEEEEEEGSNTSKVPVVSEAHL
Take B2: the binding result in test [4], in test [5] and in test [6] was “binds” each time.

B3: FLAG-tagged murine ATP5c1 (protein, UniProt Q91VR2 26-298)
chain: ATLKDITRRLKSIKNIQKITKSMKMVAAAKYARAERELKPARVYGTGSLALYEKADIKAPEDKKKHLIIGVSSDRGLCGAIHSSVAKQMKNEVAALTAAGKEVMIVGVGEKIKGILYRTHSDQFLVSFKDVGRKPPTFGDASVIALELLNSGYEFDEGSIIFNQFKSVISYKTEEKPIFSLNTIATAETMSIYDDIDADVLQNYQEYNLANLIYYSLKESTTSEQSARMTAMDNASKNASDMIDKLTLTFNRTRQAVITKELIEIISGAAALD
Take B3: the binding result was “binds weakly” in test [1], “binds” in test [2] and “binds” in test [3].
